# Assay results: the RNAGym collection of RNA variant scans (doi:10.7554/elife.90254)
# The source gives no read counts; variants with many changes may rest on few reads.
# B1: LINE1-full (parent)
# chain: UACGUAGGUGGUUUUCCCCUGAUAGUGCUAAGGGGGCCUGGAAGUUUGGACUGGGCAGAGCUCAACACAGCGUGGCAAAGUGGCUGUGGCUAGACUGCCUCUCUGGAUUCCUCGUCACUCAGCAGGGCAUCUCUGAGAGAAAUGCC
# Variants of: B1
# Assay: self-cleavage, relative activity (ratio to wild type); higher = more cleavage; in vitro, sequencing; the parent is a self-cleaving ribozyme
row,Variant,self-cleavage
1,UACGUAGGUGGUUUUCCCCUGAUAGUGCUAAGGGGGCCUGGAAGUUUGGACUGGGCGGAGCUCAACACAGCGUGGCAAAGUGGCUGUGGCUAUACUGCCUCUCCGGAUUCCUCGUCACUCAGCAGGGCAUCUCUGAGAGAAACGCC [A57G G93U U104C U143C],0.06
2,UACGUAGGUGGUUUUCCCCUGAUAGUGCUAAGGGGGCCUGGAAGUUUGGACUGGGCGAAGCUCAACUCAGCGUGGCAAAGUGGCUGUGGCUAGACCGCCUCUCUGGAUUCCUCGUCACUCAGCAGGGCAUCUCUGAGAGGAAUGCC [A57G G58A A67U U96C A140G],0.08
3,UACGUAGGUGGUUUUCCCCUGAUAGUGCUAAGGGGGCCUGGAAGUUUGGACUGGGCGGAGCUCAACAUUGCGUGGCAAAGUGGCUGUGGCUAGACUGCCUCUCUGGAUUCCUCGUCACUCAGCAGGGCAUCUCUGAGAGAAAUGCC [A57G C68U A69U],0.1
4,UACGUAGGUGGUUUUCCCCUGAUAGUGCUAAGGGGGCCUGGAAGUUUGGACUGGGCGGAGCUCAACACAGCGUGGCAAAGAGGCUGUGGCUGGACUGCCUCUCUGGAUUCCUCGUCACUCAGCAGGGCAUCUCUGAGAGAAAUGCC [A57G U81A A92G],0.1
5,UACGUAGGUGGUUUUCCCCUGAUAGUGCUAAGGGGGCCUGGAAGUUUGGACUGGGCGGAGCCCAACACAGCGUGGCAAAGUGGCUGUGGCUAGACUGCCUCUCUGGAUUCCUCGUCACACUGCAGGGCAUCUCUGAGAGAAAUGCC [A57G U62C U119A A121U],0.02
6,UACGUAGGUGGUUUUCCCCUGAUAGUGCUAAGGGGGCCUGGAAGUUUGGACUGGGCGGAGCUCAACACAGCGUGGCAAAGUGGCUGUGGCUAGACUGCCUCUCUGGAUUCCUCGUCGCUCAACAGGGCAUCUCUGAGAGAAAUGCC [A57G A117G G122A],2.3
7,UACGUAGGUGGUUUUCCCCUGAUAGUGCUAAGGGGGCCUGGAAGUUUGGACUGGGCGGAGAUCAACACAGCGCGGCAAAGUGGCUGUGGCUAGACUGCCUCUCUGGAUUCCUCGUCACUCAGCAGGGCAUCUCUGAGUGAAAUGCC [A57G C61A U73C A138U],0.05
8,UACGUAGGUGGUUUUCCCCUGAUAGUGCUAAGGGGGCCUGGAAGUUUGGACUGGGCGGAGCUCAACACAGAGUGGCAAAGUGGCUGUGGCUAGACUGCCUCUCAGGAUUCCUCGUCACUCAGCAGGGCAUCUCUGAGAGGAAUGCC [A57G C71A U104A A140G],0.03
9,UACGUAGGUGGUUUUCCCCUGAUAGUGCUAAGGGGGCCUGGAAGUUUGGACUGGGCGGAGCACAACACAGCGUGGCAGAGUGGCUGUGGCUAGACUGCCUCUCUGGAUUCCUCGUCACUCAGCAGGGCGUCUCUGAGAGAAAUGCC [A57G U62A A78G A129G],0.18
10,UACGUAGGUGGUUUUCCCCUGAUAGUGCUAAGGGGGCCUGGAAGUUUGGACUGGGCGGAGCUCAACACAGCGUGGCUAAGUGGCUGUGGCUAGACAGCCUCUCUGGAUUCCUCGUCGCUCAGCAGGGCAUCUCUGAGAGAAAUGCC [A57G A77U U96A A117G],0
11,UACGUAGGUGGUUUUCCCCUGAUAGUGCUAAGGGGGCCUGGAAGUUUGGACUGGGCGGAGCCCAACACAGCGUGGCAAAGUGGCUGUGGCUAGACUGCCUCUCUGGAUUCCUCGUCACUCAGCAGGGCAUCUCUGAGGGAAAUGCC [A57G U62C A138G],0.11
12,UACGUAGGUGGUUUUCCCCUGAUAGUGCUAAGGGGGCCUGGAAGUUUGGACUGGGCGGAGCUCAACACAGCGUGGCUAAGCGACUGUGGCUAGACUGCCUCUCUGGAUUCCUCGUCACUCAGCAGGGCAUCUCUGAGUGAAAUGCC [A57G A77U U81C G83A A138U],1.2
13,UACGUAGGUGGUUUUCCCCUGAUAGUGCUAAGGGGGCCUGGAAGUUUGGACUGGGCGGAGCUCAACACAGCGUGGCCACGUGGCUGUGGCUAGACUGCCUCUCUGGAUUCCUCGUCACUCAGCAGGGCAUCUCUGAGUGAAAUGCC [A57G A77C A79C A138U],0.97
14,UACGUAGGUGGUUUUCCCCUGAUAGUGCUAAGGGGGCCUGGAAGUUUGGACUGGGCGGAGCUCAACACAGCGUGGCAAGGUGGCUGUGGCUAGACUGCCUCUCUGGAUUCCUCGUCACUCAGCGGGGCAUCUCUGAGAGAAAUGCC [A57G A79G A124G],0.51
15,UACGUAGGUGGUUUUCCCCUGAUAGUGCUAAGGGGGCCUGGAAGUUUGGACUGGGCGGAGCUCAACACAGCGUGGCAAAGUGGCUGUGGCCAGACUGCCUCUCUGGAUUCCUCGUCACUCAGCAGGGCAUCUCCGAGAGAAAUGCC [A57G U91C U134C],0
16,UACGUAGGUGGUUUUCCCCUGAUAGUGCUAAGGGGGCCUGGAAGUUUGGACUGGGCGGAGCUCAACACAGCGUGGCUAAGUGGCUGUGGCUAGACUGCCUCUCUGGAUUCCUCGUCACUCAGCAGGGCAUCUCAGAGAGAAAUGCC [A57G A77U U134A],0.2
17,UACGUAGGUGGUUUUCCCCUGAUAGUGCUAAGGGGGCCUGGAAGUUUGGACUGGGCGGAGCUCAACACAGCGUGGCAAAGUGGCAGUGGCUAGACUGCCUCUCUGGAUUCCUCGUCACACAGCAGGGCAUCUCUGGGAGAAAUGCC [A57G U85A U119A A136G],0.07
18,UACGUAGGUGGUUUUCCCCUGAUAGUGCUAAGGGGGCCUGGAAGUUUGGACUGGGCGGAGCUCAACACAGCGUGGCAAAGUGGCUGUUGCUAGGCUGCCUCUCUGGAUUCCUCGACACUCAGCAGGGCAUCUCUGAGAGAAACGCC [A57G G88U A94G U115A U143C],0.03
19,UACGUAGGUGGUUUUCCCCUGAUAGUGCUAAGGGGGCCUGGAAGUUUGGACUGGGCGGAGCCCAACACAGCGUGGCAAAGUGGCUGUGGCUAGACUGCCUCUCUGGAUUCCUCGUCACUCAGCAGGGCAUCUCUGAGAGGAAUGCC [A57G U62C A140G],0.13
